Measurements as given in PubChem BioAssay AID1508642 (National Center for Advancing Translational Sciences (NCATS), 2021).
Out of some 43,000 compounds screened, about 200 (0.47%) were called active. The inconclusive results got no clear call from the source; some entries with a clear call stand among them for comparison. Calls follow the shape of the dose curve; as a rule, active = well fitted cell-killing curve with a large enough effect; inconclusive = small, poorly fitted or top-dose-only effect, or effect the other way; inactive = flat fitted curve, though single readings scatter. A potency beside an inconclusive call is a rough fit, not a confirmed value.

assay: Cell viability qHTS assay in S16 Pmp22-F2sN cells; details: S16 Pmp22-F2sN Schwann cells viability, CellTiter-Glo, 24 h; activity change, negative = cytotoxicity: at 57.5 µM (top of the series); also: nearly all actives have a fitted effect of over 65% in size
Method in brief: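 Viability was measured by CellTiter-Glo luminescence (15 min, room temperature). This followed 24 h at 37 °C of compound exposure (23 nL pin transfer) in S16 Pmp22-F2sN Schwann cells, 500-1,000 per well.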
% is scaled to controls: 0 for no effect and ±100 for the full control effect; potency is read from the fitted curve at half-maximal effect; tags tell the direction and shape of the fitted curve.

Q: With O=C(CCS(=O)(=O)c1nc(-c2ccc3c(c2)OCO3)cc(C(F)(F)F)n1)Nc1ccc(Br)cc1 as the compound, how does the Potency read?
A: The Potency was inconclusive: 28.2 µM [cytotoxic, single point].

Q: Which Potency does the source give for COc1cc(NC(=O)N2CCSc3ccccc32)cc(OC)c1OC here?
A: The Potency was inconclusive: 1 µM [cytotoxic, full curve, poor fit].

Q: For Cc1ccc(-c2c(C(=O)N3CCN(c4ccc(F)cc4)CC3)oc(=O)c3ccccc23)cc1, which “activity change, negative = cytotoxicity” value is on record?
A: Its value is inactive: 25.3%.

Q: For CCOc1ccc(CN2CCN(Cc3ccc4c(c3)c3ccccc3n4CC)CC2)cc1, which Potency is on record?
A: The Potency was inconclusive: 28.2 µM [cytotoxic, single point].

Q: For Cc1cccc2c1-c1sc(C(=O)NCCCN3CCN(c4ccccc4F)CC3)cc1CO2, which Potency is on record?
A: The Potency was inconclusive: 39.8 µM [cytotoxic, single point].

Q: For COc1ccc(OC)c(C2CC(=O)c3c([nH]c(C(=O)OCc4ccc(C)cc4)c3C)C2)c1 (stereo unspecified), which Potency is on record?
A: The Potency was inconclusive: 10 µM [cytotoxic, partial curve].

Q: For COc1cccc(C(=O)CC2(O)C(=O)N(Cc3ccccc3)c3ccccc32)c1 (stereo unspecified), which Potency is on record?
A: The Potency was inconclusive: 39.8 µM [cytotoxic, single point].

Q: Which Potency does the source give for COc1ccc(-c2c(C)c3cc(OC(=O)N4CCOCC4)ccc3oc2=O)cc1OC here?
A: The Potency was inconclusive: 35.5 µM [cytotoxic, partial curve, poor fit].

Q: With CCOC(=O)C1CCCN(c2c(C(=O)c3ccccc3)cnc3ccc(F)cc23)C1 (stereo unspecified) as the compound, how does the “activity change, negative = cytotoxicity” value read?
A: Its value is inactive: 1.05%.

Q: With COc1ccc(NC(=O)c2nnn(CC(=O)Nc3ccc(C)c(C)c3)c2N)cc1OC as the compound, how does the “activity change, negative = cytotoxicity” value read?
A: The value was inactive: -3.64%.

Q: Which Potency does the source give for CCOc1ccc(N(Cc2ccccc2)C(=O)c2nc(SC)ncc2Cl)cc1 here?
A: The Potency was inconclusive: 28.2 µM [cytotoxic, single point].

Q: Which Potency does the source give for CCCOc1ccc(C(=O)N2CCC(c3nc4ccccc4s3)CC2)cc1 here?
A: The Potency was inconclusive: 39.8 µM [rising, partial curve, poor fit].

Q: With O=C(C1CC1)N1CCc2cc(Br)cc(S(=O)(=O)Nc3ccc(F)c(F)c3)c21 as the compound, how does the Potency read?
A: The Potency was inconclusive: 39.8 µM [cytotoxic, single point].

Q: With FC(F)(F)c1cc(Nc2nc3ccccc3c3nncn23)ccc1Cl as the compound, how does the Potency read?
A: The Potency was inconclusive: 25.1 µM [cytotoxic, single point].

Q: Which “activity change, negative = cytotoxicity” value does the source give for CCCNC(=O)c1cnn(-c2ccc(C)c(C)c2)c1C1CCN(C(=O)OC(C)(C)C)CC1 here?
A: Its value is inactive: -1.78%.

Q: Which Potency does the source give for Cc1ccc(NC(=O)/C=C/c2ccco2)cc1F here?
A: Its Potency is inconclusive: 10 µM [cytotoxic, partial curve, poor fit].

Q: For Fc1ccccc1N1CCN(c2ncnc3onc(-c4ccc(Cl)cc4)c23)CC1, which Potency is on record?
A: The Potency was inconclusive: 39.8 µM [cytotoxic, single point].

Q: Which “activity change, negative = cytotoxicity” value does the source give for Cc1ccc(C(=O)Nc2ccc(C(=O)O)cc2)cc1S(=O)(=O)N1CCC(C)CC1 here?
A: The value was inactive: 26.9%.

Q: With O=C(Cn1cc(C(=O)c2ccccc2)c(=O)c2cc3c(cc21)OCCO3)Nc1ccc(F)c(F)c1 as the compound, how does the Potency read?
A: Its Potency is inconclusive: 39.8 µM [cytotoxic, single point].

Q: For CCOc1ccc(CC(=O)NCc2ccc3c(c2)CCN3C(=O)c2ccccc2)cc1OCC, which Potency is on record?
A: Its Potency is inconclusive: 39.8 µM [cytotoxic, partial curve, poor fit].

Q: Which Potency does the source give for Cc1sc2ncn(CC(=O)N(C)c3ccc(C(C)C)cc3)c(=O)c2c1S(=O)(=O)N1CCC(C)CC1 here?
A: The Potency was inconclusive: 0.891 µM [cytotoxic, full curve].

Q: Which “activity change, negative = cytotoxicity” value does the source give for Cc1ccc(Nc2cc(C)c(C#N)c3nc4ccccc4n23)c(C)c1 here?
A: The value was inactive: 20.2%.

Q: Which Potency does the source give for CCc1ccc(C2c3c(oc4cc(C)c(C)cc4c3=O)C(=O)N2c2nc(C)c(C(=O)OC)s2)cc1 (stereo unspecified) here?
A: The Potency was inconclusive: 0.02 µM [rising, full curve, poor fit].

Q: For CC(C)C(=O)OCc1cc(=O)n2nc(C3CC3)sc2n1, which Potency is on record?
A: Its Potency is inconclusive: 25.1 µM [rising, partial curve].

Q: Which Potency does the source give for Cc1cc(F)ccc1NC(=O)CCn1nc(C)c(S(=O)(=O)N2CCCCC2)c1C here?
A: Its Potency is inconclusive: 0.891 µM [rising, full curve, poor fit].

Q: With CS(=O)(=O)N(Cc1ccccc1)c1ccc(C(=O)Nc2ccc(Cl)cc2)cc1 as the compound, how does the Potency read?
A: Its Potency is inconclusive: 39.8 µM [cytotoxic, single point].

Q: For Cc1cccc(-n2nc(C)c(C(=O)N3CCN(c4ccccc4)CC3)c2-n2cccc2)c1, which Potency is on record?
A: Its Potency is inconclusive: 39.8 µM [cytotoxic, single point].

Q: With CCOC(=O)c1cnc2c(C)cccc2c1Nc1ccc(OC(C)C)cc1 as the compound, how does the Potency read?
A: Its Potency is inconclusive: 20 µM [rising, partial curve, poor fit].

Q: For Cn1c(=O)[nH]c(=O)c2c1nc(CN1CCN(c3ccccc3F)CC1)n2Cc1ccc(F)cc1, which Potency is on record?
A: Its Potency is inconclusive: 35.5 µM [cytotoxic, partial curve, poor fit].

Q: With COc1cccc(-c2nc(SCC(=O)Nc3ccc4c(c3)OCCO4)c(-c3ccc(C)cc3)[nH]2)c1 as the compound, how does the Potency read?
A: The Potency was inconclusive: 39.8 µM [cytotoxic, single point].

Q: For COc1ccc(OC)c(NC(=O)CC(=O)Nc2ccc3nc4n(c(=O)c3c2)CCCCC4)c1, which Potency is on record?
A: The Potency was inconclusive: 3.16 µM [rising, partial curve, poor fit].

Q: For COc1cccc(NC(=O)CSc2c3c(nc4ccccc24)CCCC3)c1, which Potency is on record?
A: The Potency was inconclusive: 39.8 µM [cytotoxic, single point].

Q: With Cc1c(Cl)ccc2sc(N3CCN(C(=O)C4CC4)CC3)nc12 as the compound, how does the Potency read?
A: Its Potency is inconclusive: 20 µM [cytotoxic, single point].

Q: For COc1ccccc1NC(=O)C1CCCN(c2ncnc3onc(-c4ccc(F)cc4)c23)C1 (stereo unspecified), which Potency is on record?
A: The Potency was inconclusive: 28.2 µM [cytotoxic, single point].

Q: With COc1ccc(OC)c(NC(=O)N2CC3CCCN3c3ccccc32)c1 (stereo unspecified) as the compound, how does the Potency read?
A: Its Potency is inconclusive: 28.2 µM [cytotoxic, partial curve, poor fit].

Q: For COc1cccc(N2CCN(c3ncnc4c3c(-c3ccccc3)cn4-c3cccc(C(F)(F)F)c3)CC2)c1, which “activity change, negative = cytotoxicity” value is on record?
A: Its value is inactive: 13.7%.

Q: Which Potency does the source give for COc1ccc(C(=O)NCC(c2ccc(N(C)C)cc2)N2CCc3ccccc32)cc1OC (stereo unspecified) here?
A: The Potency was inconclusive: 25.1 µM [cytotoxic, single point].

Q: Which Potency does the source give for Cc1cccc(NC(c2ccccc2F)c2ccc3ccc(C)nc3c2O)n1 (stereo unspecified) here?
A: Its Potency is inconclusive: 39.8 µM [cytotoxic, partial curve, poor fit].

Q: With COc1ccc(/C=C/C(=O)Nc2ccc3nc(N4CCC(C)CC4)cc(C)c3c2)cc1 as the compound, how does the Potency read?
A: The Potency was inconclusive: 2.82 µM [rising, full curve, poor fit].

Q: With CCc1cccc(C)c1NC(=O)Cn1nc(C)c2nn(-c3ccc(Cl)cc3)c(C)c2c1=O as the compound, how does the Potency read?
A: The Potency was inconclusive: 39.8 µM [cytotoxic, single point].

Q: For Cc1ccc(C(=O)Nc2c(C)nc3ccccn3c2=O)cc1C, which “activity change, negative = cytotoxicity” value is on record?
A: Its value is inactive: 9.15%.

Q: Which Potency does the source give for Cc1ccc(CNC(=O)c2ccc3nc(SCc4ccc(F)cc4)[nH]c3c2)cc1 here?
A: The Potency was inconclusive: 25.1 µM [cytotoxic, single point].

Q: With CC(C)(C)c1ccc(C(=O)Nc2onc3c2CCCC3)cc1 as the compound, how does the Potency read?
A: Its Potency is inconclusive: 39.8 µM [cytotoxic, single point].

Q: With CC(C)(C)c1ccc(C(=O)NCC(c2ccc(Cl)cc2)N2CCOCC2)cc1 (stereo unspecified) as the compound, how does the Potency read?
A: The Potency was inconclusive: 39.8 µM [cytotoxic, partial curve, poor fit].

Q: For Cc1ccc(CN(Cc2ccco2)C(=O)COc2ccc(C)c(C)c2)cc1, which “activity change, negative = cytotoxicity” value is on record?
A: The value was inactive: -8.37%.

Q: With Cc1ccc(/C=C/C(=O)Nc2ccccc2C(N)=O)o1 as the compound, how does the Potency read?
A: Its Potency is inconclusive: 25.1 µM [cytotoxic, single point].

Q: For CCCCS(=O)(=O)c1oc(-c2ccc(F)cc2)nc1S(=O)(=O)c1ccc(C)cc1, which Potency is on record?
A: Its Potency is inconclusive: 15.8 µM [cytotoxic, partial curve, poor fit].

Q: With Cc1ccc(CCNC(=O)c2c(C)oc3ncn(CC(C)C)c(=O)c23)cc1 as the compound, how does the “activity change, negative = cytotoxicity” value read?
A: The value was inactive: -5.22%.

Q: Which Potency does the source give for CC(C)(C)OC(=O)N1CCC(c2c(C(=O)NCCc3ccccc3)cnn2-c2ccc(F)cc2F)CC1 here?
A: Its Potency is inconclusive: 39.8 µM [cytotoxic, single point].

Q: With O=C(NCc1cccc(F)c1)c1ccc(NC(=O)c2nsc3ccccc23)cc1 as the compound, how does the Potency read?
A: Its Potency is inconclusive: 10 µM [cytotoxic, partial curve, poor fit].

Q: Which “activity change, negative = cytotoxicity” value does the source give for Cn1c(=O)oc2cc(S(=O)(=O)N3CCC(C(=O)N4CCN(c5ccccc5F)CC4)CC3)ccc21 here?
A: The value was inactive: -6.84%.

Q: With Cc1sc(-c2cc3c([nH]c2=O)CC(c2ccccc2)CC3=O)nc1-c1ccc(Cl)cc1 (stereo unspecified) as the compound, how does the Potency read?
A: Its Potency is inconclusive: 0.631 µM [cytotoxic, full curve, poor fit].

Q: Which Potency does the source give for CCCCN1C(=O)C(O)(CC(=O)c2ccc(C)cc2C)c2cc(Br)ccc21 (stereo unspecified) here?
A: Its Potency is inconclusive: 39.8 µM [cytotoxic, single point].

Q: Which Potency does the source give for Cc1ccc2[nH]c(=O)c3cc(C(=O)NCCCN4CCC(C)CC4)sc3c2c1 here?
A: The Potency was inconclusive: 39.8 µM [cytotoxic, single point].

Q: Which “activity change, negative = cytotoxicity” value does the source give for CCCCNc1oc(-c2ccc(COc3ccc(OC)cc3)o2)nc1C#N here?
A: Its value is inactive: -2.16%.

Q: Which Potency does the source give for CCOC(=O)c1c(C)[nH]c(C)c1S(=O)(=O)N1CCC(C(=O)NCc2ccccc2Cl)CC1 here?
A: The Potency was inconclusive: 39.8 µM [cytotoxic, single point].

Q: With COc1ccc(Nc2ncnc3c2nc2n3CCCCC2)cc1 as the compound, how does the Potency read?
A: The Potency was inconclusive: 39.8 µM [rising, single point].

Q: Which Potency does the source give for COc1ccccc1CNC(=O)CSc1ccc(-c2sc(-c3ccccc3)nc2C)nn1 here?
A: The Potency was inconclusive: 39.8 µM [cytotoxic, single point].

Q: For COC(=O)c1ccc(NC(=O)CSc2nnc3c4ccccc4n(C(C)C)c3n2)cc1, which “activity change, negative = cytotoxicity” value is on record?
A: Its value is inactive: 5.8%.

Q: Which Potency does the source give for Cc1noc(/C=C/c2ccccc2F)c1S(=O)(=O)N1CCC(C(=O)NCC(C)c2ccccc2)CC1 (stereo unspecified) here?
A: The Potency was inconclusive: 22.4 µM [rising, single point].

Q: With OCCCn1c(-c2ccc(F)cc2)csc1=Nc1ccc(F)cc1 as the compound, how does the Potency read?
A: Its Potency is inconclusive: 39.8 µM [cytotoxic, single point].
